Laboratory results from the supplement of paper PMC12217912.
The list shows a part of the results. Sequences were assembled here from the parent chain. Values near 0.05 are background.

B1: TEV protease; numbered along this chain (parent)
chain: MGESLFKGPRDYNPISSSICHLTNESDGHTTSLYGIGFGPFIITNKHLFRRNNGTLVVQSLHGVFKVKDTTTLQQHLVDGRDMIIIRMPKDFPPFPQKLKFREPQREERICLVTTNFQTKSMSSMVSDTSCTFPSGDGIFWKHWIQTKDGQCGSPLVSTRDGFIVGIHSASNFTNTNNYFTSVPKNFMELLTNQEAQQWVSGWRLNADSVLWGGHKVFMVKPEEPFQPVKEATQL

Variants of: B1
Assay: raw area under fraction-flipped curve 0-4 h after induction (AUC4h, not background-subtracted), DNA-recorder readout of cleavage of the substrate (dimensionless); higher = more cleavage of the substrate by the protease variant
Conditions: temperature: 34 °C; time window: 0-4 h after rhamnose induction
Protocol: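 In vivo DNA recorder in E. coli TOP10(DE3) ΔrhaA at 34 °C. Each TEVp single-site mutant (parent TEVp 0) is paired with a single-site variant of the 7-mer TEVs (canonical ENLYFQ|S). The substrate sits between flexible linkers in a Bxb1-sfGFP-TEVs-SsrA fusion, so cleavage stabilises Bxb1 and speeds flipping of a recombination array, read by NGS. The value is the raw area under the fraction-flipped curve over 0-4 h after rhamnose induction (AUC4h), with ≥20 reads per time point. It is not background-subtracted; inactive controls average about 0.047.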
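Note: Bxb1 expression induced with 0.2% (w/v) L-rhamnose at OD600 near 0.5, cultures sampled hourly, flipped fraction per protease–substrate barcode pair counted by paired-end Illumina sequencing.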

Variant	area with substrate ENLYFQA	area with substrate ENLYFQC	area with substrate ENLYFQH	area with substrate ENLYFQK	area with substrate ENLYFQL	area with substrate ENLYFQM	area with substrate ENLYFQN	area with substrate ENLYFQQ	area with substrate ENLYFQS	area with substrate ENLYFQW	area with substrate ENLYFQI	area with substrate ENLYFQD	area with substrate ENLYFQR	area with substrate ENLYFQT	area with substrate ENLYFQG	area with substrate ENLYFQP	area with substrate ENLYFQY	area with substrate ENLYFQF	area with substrate ENLYFQV	area with substrate ENLYFQE
MGESLFKGPRDYNPISSSICHLTNESDGHTTSLYGIGFGPFIITNKHLFRRNNGTLVVQSLHGVFKVKDTTTLQQHLVDGRDMIIIRMPKDFPPFPQKLKFREPQREERICLVTTNFQTKSMSSMVSDTSCTFPSGDGIFWKHWIQTKDGQCGSPLVSTRDGFIVGIHSASNFTNTNNYFTSVPKNFMELLTNQEAQQWVSGWRLNADSVLWGLHKVFMVKPEEPFQPVKEATQL [G214L]	0.0728	0.0975	0.059	0.0678	0.0667	0.0478	0.0647	0.0539	0.0769	0.0509										
MGESLFKGPRDYNPISSSICHLTNESDGHTTSLYGIGFGPFIITNKHLFRRNNGTLVVQSLHGVFKVKDTTTLQQHLVDGRDMIIIRMPKDFPPFPQKLKFREPQREERICLVTTNFQTKSMSSMVSDTSCTFPSGDGIFWKHWIQTKDGQCGSPLVSTRDGFIVGIHSASNFTNTNNYFTSVPKNFMELLTNQEAQQWVSGWRLNADSVLYGGHKVFMVKPEEPFQPVKEATQL [W212Y]	0.116	0.102		0.061	0.0568	0.0577			0.12		0.0565									
MGESLFKGPRDYNPISSSICHLTNESDGHTTSLYGIGFGPFIITNKHLFRRNNGTLVVQSLHGVFKVKDTTTLQQHLVDGRDMIIIRMPKDFPPFPQKLKFREPQREERICLVTTNFQTKSMSSMVSDTSCTFPSGDGIFWKHWIQTKDGQCGSPLVSTRDGFIVGIHSASNFTNTNNYFTSVPKNFMELLTNQEAQQWVSGWRLNADSVLWGGHKVFMVKPEEYFQPVKEATQL [P225Y]	0.107		0.0768	0.0583		0.0963	0.0787		0.094		0.0635	0.0461	0.071	0.0731						
MGESLFKGPRDYNPISSSICHLTNESDGHTTSLYGIGFGPFIITNKHLFRRNNGTLVVQSLHGVFKVKDTTTLQQHLVDGRDMIIIRMPKDFPPFPQKLKFREPQREERICLVTTNFQTKSMSSMVSDTSCTFPSGDGIFWKHWIQTKDGQCGSPLVSTRDGFIVGIHSASNFTNTNNYFTSVPKNFMELLTNQEAQQWVSGWRLNADSWLWGGHKVFMVKPEEPFQPVKEATQL [V210W]	0.0883	0.0863		0.0524	0.0587		0.0738		0.089		0.0842		0.0661	0.0477	0.0918	0.0657	0.0426			
MGESLFKGPRDYNPISSSICHLTNESDGHTTSLYGIGFGPFIITNKHLFRRNNGTLVVQSLHGVFKVKDTTTLQQHLVDGRDMIIIRMPKDFPPFPQKLKFREPQREERICLVTTNFQTKSMSSMVSDTSCTFPSGDGIFWKHWIQTKDGQCGSPLVSTRDGFIVGIHSASNFTNTNNYFTSVPKNFMELLTNQEAQQWVSGWRLNADSVLWGGHKVFMFKPEEPFQPVKEATQL [V220F]	0.101	0.0912			0.0634	0.0971			0.104	0.0528		0.0607	0.0577	0.0719	0.099	0.0806		0.0807	0.0618	
MGESLFKGPRDYNPISSSICHLTNESDGHTTSLYGIGFGPFIITNKHLFRRNNGTLVVQSLHGVFKVKDTTTLQQHLVDGRDMIIIRMPKDFPPFPQKLKFREPQREERICLVTTNFQTKSMSSMVSDTSCTFPSGDGIFWKHWIQTKDGQCGSPLVSTRDGFIVGIHSASNFTNTNNYFTSVPKNFMELLTNQEAQQWVSGWRLNADSVLWGGHKVFMKKPEEPFQPVKEATQL [V220K]	0.0949		0.067	0.0663		0.0928	0.107		0.102	0.0754		0.105	0.053	0.0636	0.101				0.0818	
MGESLFKGPRDYNPISSSICHLTNESDGHTTSLYGIGFGPFIITNKHLFRRNNGTLVVQSLHGVFKVKDTTTLQQHLVDGRDMIIIRMPKDFPPFPQKLKFREPQREERICLVTTNFQTKSMSSMVSDTSCTFPSGDGIFWKHWIQTKDGQCGSPLVSTRDGFIVGIHSASNFTNTNNYFTSVPKNFMELLTNQEAQQWVSGWRLNADSVLWGGHKVFMHKPEEPFQPVKEATQL [V220H]	0.104	0.138	0.0534	0.0675	0.0541	0.0915			0.117	0.0742		0.0709	0.0558	0.075	0.116		0.0793	0.0775	0.074	
MGESLFKGPRDYNPISSSICHLTNESDGHTTSLYGIGFGPFIITNKHLFRRNNGTLVVQSLHGVFKVKDTTTLQQHLVDGRDMIIIRMPKDFPPFPQKLKFREPQREERICLVTTNFQTKSMSSMVSDTSCTFPSGDGIFWKHWIQTKDGQCGSPLVSTRDGFIVGIHSASNFTNTNNYFTSVPKNFMELLTNQEAQQWVSGWRLNADSVEWGGHKVFMVKPEEPFQPVKEATQL [L211E]	0.113	0.114			0.0677	0.0975	0.11	0.0745	0.122	0.0731	0.0721	0.0956	0.0663	0.0766	0.125	0.0524		0.0999	0.0089	0.0482
MGESLFKGPRDYNPISSSICHLTNESDGHTTSLYGIGFGPFIITNKHLFRRNNGTLVVQSLHGVFKVKDTTTLQQHLVDGRDMIIIRMPKDFPPFPQKLKFREPQREERICLVTTNFQTKSMSSMVSDTSCTFPSGDGIFWKHWIQTKDGQCGSPLVSTRDGFIVGIHSASNFTNTNNYFTSVPKNFMELLTNQEAQQWVSGWRLWADSVLWGGHKVFMVKPEEPFQPVKEATQL [N206W]	0.0806	0.071	0.0436	0.068	0.0586	0.0699	0.0752		0.0788	0.0583	0.0583	0.0605	0.0614		0.0873					
MGESLFKGPRDYNPISSSICHLTNESDGHTTSLYGIGFGPFIITNKHLFRRNNGTLVVQSLHGVFKVKDTTTLQQHLVDGRDMIIIRMPKDFPPFPQKLKFREPQREERICLVTTNFQTKSMSSMVSDTSCTFPSGDGIFWKHWIQTKDGQCGSPLVSTRDGFIVGIHSASNFTNTNNYFTSVPKNFMELLTNQEAQQWVSGWRLNADSVLWGGHKVFMVKPEEPFQPVKDATQL [E231D]	0.114	0.115	0.101	0.0603		0.0967	0.0493		0.108	0.0624	0.0947		0.0495	0.0704		0.0518			0.0573	
MGESLFKGPRDYNPISSSICHLTNESDGHTTSLYGIGFGPFIITNKHLFRRNNGTLVVQSLHGVFKVKDTTTLQQHLVDGRDMIIIRMPKDFPPFPQKLKFREPQREERICLVTTNFQTKSMSSMVSDTSCTFPSGDGIFWKHWIQTKDGQCGSPLVSTRDGFIVGIHSASNFTNTNNYFTSVPKNFMELLTNQEAQQWVSGWRLNADSVLWEGHKVFMVKPEEPFQPVKEATQL [G213E]	0.075		0.0604			0.0593			0.0599				0.0588	0.0449					0.0537	
MGESLFKGPRDYNPISSSICHLTNESDGHTTSLYGIGFGPFIITNKHLFRRNNGTLVVQSLHGVFKVKDTTTLQQHLVDGRDMIIIRMPKDFPPFPQKLKFREPQREERICLVTTNFQTKSMSSMVSDTSCTFPSGDGIFWKHWIQTKDGQCGSPLVSTRDGFIVGIHSASNFTNTNNYFTSVPKNFMELLTNQEAQQWVSGWRLNADSVLWIGHKVFMVKPEEPFQPVKEATQL [G213I]	0.0455	0.0578	0.049	0.0563			0.0737		0.061	0.0603	0.0543	0.0611	0.0583	0.0627	0.087		0.0644		0.0648	
MGESLFKGPRDYNPISSSICHLTNESDGHTTSLYGIGFGPFIITNKHLFRRNNGTLVVQSLHGVFKVKDTTTLQQHLVDGRDMIIIRMPKDFPPFPQKLKFREPQREERICLVTTNFQTKSMSSMVSDTSCTFPSGDGIFWKHWIQTKDGQCGSPLVSTRDGFIVGIHSASNFTNTNNYFTSVPKNFMELLTNQEAQQWVSGWRLNADSVLWGGHKVFMVKPPEPFQPVKEATQL [E223P]	0.0664	0.0991			0.0641	0.0725			0.09	0.0468	0.0725	0.064	0.0539	0.0745	0.0909		0.0941			
MGESLFKGPRDYNPISSSICHLTNESDGHTTSLYGIGFGPFIITNKHLFRRNNGTLVVQSLHGVFKVKDTTTLQQHLVDGRDMIIIRMPKDFPPFPQKLKFREPQREERICLVTTNFQTKSMSSMVSDTSCTFPSGDGIFWKHWIQTKDGQCGSPLVSTRDGFIVGIHSASNFTNTNNYFTSVPKNFMELLTNQEAQQWVSGTRLNADSVLWGGHKVFMVKPEEPFQPVKEATQL [W203T]	0.0568	0.0595	0.0238		0.0688	0.0592			0.0671		0.0556		0.0606	0.0627	0.0598		0.0735		0.0554	
MGESLFKGPRDYNPISSSICHLTNESDGHTTSLYGIGFGPFIITNKHLFRRNNGTLVVQSLHGVFKVKDTTTLQQHLVDGRDMIIIRMPKDFPPFPQKLKFREPQREERICLVTTNFQTKSMSSMVSDTSCTFPSGDGIFWKHWIQTKDGQCGSPLVSTRDGFIVGIHSASNFTNTNNYFTSVPKNFMELLTNQEAQQWVSGWYLNADSVLWGGHKVFMVKPEEPFQPVKEATQL [R204Y]	0.106	0.123	0.0932	0.0668	0.0662	0.0964	0.0927	0.0698	0.115	0.106	0.0599	0.0648	0.0585	0.084	0.108		0.0851	0.0921	0.0703	
MGESLFKGPRDYNPISSSICHLTNESDGHTTSLYGIGFGPFIITNKHLFRRNNGTLVVQSLHGVFKVKDTTTLQQHLVDGRDMIIIRMPKDFPPFPQKLKFREPQREERICLVTTNFQTKSMSSMVSDTSCTFPSGDGIFWKHWIQTKDGQCGSPLVSTRDGFIVGIHSASNFTNTNNYFTSVPKNFMELLTNQEAQQWVSGWRLNADSVLWGGHKVFMVPPEEPFQPVKEATQL [K221P]	0.0783	0.099		0.0626	0.0594	0.0887	0.085		0.106	0.0723		0.061	0.049	0.0517	0.075	0.0718				
MGESLFKGPRDYNPISSSICHLTNESDGHTTSLYGIGFGPFIITNKHLFRRNNGTLVVQSLHGVFKVKDTTTLQQHLVDGRDMIIIRMPKDFPPFPQKLKFREPQREERICLVTTNFQTKSMSSMVSDTSCTFPSGDGIFWKHWIQTKDGQCGSPLVSTRDGFIVGIHSASNFTNTNNYFTSVPKNFMELLTNQEAQQWVSGWRLNADSVLWGGHKVFMVKPEEPFQPNKEATQL [V229N]	0.0881	0.11			0.0563	0.079		0.0827	0.107	0.079	0.0588	0.0663	0.0591	0.0691	0.104				0.0394	
MGESLFKGPRDYNPISSSICHLTNESDGHTTSLYGIGFGPFIITNKHLFRRNNGTLVVQSLHGVFKVKDTTTLQQHLVDGRDMIIIRMPKDFPPFPQKLKFREPQREERICLVTTNFQTKSMSSMVSDTSCTFPSGDGIFWKHWIQTKDGQCGSPLVSTRDGFIVGIHSASNFTNTNNYFTSVPKNFMELLTNQEAQQWVSGWRLNADQVLWGGHKVFMVKPEEPFQPVKEATQL [S209Q]	0.13	0.13	0.0698	0.0576	0.0539		0.0907	0.0671	0.109	0.084	0.0649		0.0757			0.0566				0.0653
